The results in this text go back to the supplement of paper PMC12632987.

Whole data set: some 2,300 sequences, median “median log2 fold change of GCK-ALFA target abundance (FLAG IP / Myc IP barcode read proportion)” near 0.095, cut for the lowest 2% near -0.47. Some of the results follow.

The chains are these.
B1: LC3A_62_2044 (protein)
chain: MYRAEVDVDILAKDEEAAETIAEELKAMLEELKKKDPNIKYEVKLDKENKYVSVKVTYEAETKEEAEAKADEILDAIDELLEKHEDLIEAALISVEFKKL
B2: LC3A_free_46_2390 (protein)
chain: ITGEIDLLLKGATEEQVKELAEAAKKKILELAKEKGINVEIEVEIEKLPDGDYYVNITVKSDSKDKNVVLDILDETEDYIEEKAKELGIKVSSIISVEED
B3: LC3A_3_1736 (protein)
chain: MEEKLKEARERLEKLGFSEEVIEAALEVVKALLEKGFYEAVETLLKELEELKDLPDEILIAMLEDIKRYVETNDVSEEEVIEKIKEEARVARNEAEIEEL
B4: LC3A_3_1852 (protein)
chain: MDEIIEEILELLKSLGRSEETIEAALRLAEALKERGYEEALKTFLEELKELKDLPDEILLAMFEDILAEVETKDLSEEETIELIKREARTARNEAEIEEL
B5: LC3A_17_582 (protein)
chain: KEEIREELEELLRELKELLKKAKEYGLPKAPEIEKLLEEAERALEEGNLLEAAKLLEEAADLLADAFEEKEEELGSEASLYEMEANGIELRAIGIILKLE
B6: LC3A_3_1587 (protein)
chain: LEEKEKEMIEALKKAGHSEETIEAVKELLELLKEKGYEKAAEEFIELVLENIDLSSELLLDVAEEMKALVEAGELSEEELIEKARELFRVARSEQEIIEL
B7: LC3A_147_456 (protein)
chain: MKYVISVDVLFKNDPELVEEVEKKLREIAEKYGGEVKVERQEIQESPTTTEYYLRVDITFEDEEKAKAAEQEVSKLLEETAKKYPDKFLGSMISFDKEEE
B8: LC3A_free_8_2537 (protein)
chain: MIEKLRKEASEILDKAEEEVEKKAKELGIDPLDVNELLLLLGEAIIEIHEIETESIEDVKKDVTESLDKAIELAKKLSPEIAKIVEEAKKKVLELLEKME
B9: LC3A_45_1952 (protein)
chain: MYVAEVDVLVPAAEFDKAVAVLKEKAKELEKEKGLKVEIDEKALAEARKEAEAEGEALVTVTVYSEDKDEALDAAVEIEDALEEAMSPSVASIISIKEEP
B10: LC3A_28_1030 (protein)
chain: AALKAAAAAALAEARAQFEAGEEAVVTLDVGDVPTAEAKAVVTAFLAELRALSAEYGGRKVSVVINYDGDQATLDAIIDAAEAAEAEDPNLTVIIAYADN
B11: LC3A_28_751 (protein)
chain: MNIEDDVEAAIKEAKEAKAKGEEKVIELTVPNGATQEDVDKLIKGLEEIAEIAKDMKAVSIVINVDSGVSQENLDKLMDKGEELEKKYPNITVIFALDEE
B12: LC3A_141_386 (protein)
chain: MKKEFEFTATEEEAQEVFDFFDEVEKELLEMIEESGGKPVKVKVTIKATNDETGEVVEKEEEFTVTKENVSEVMEGLAIEVLSLLDKVKGTVEVKIEAEV
B13: LC3A_147_503 (protein)
chain: YLLKVDIDIIVKNAEEEVKKMVEEIEEELKKKGFEVKVKINIEQLDENTTYISINIEVKAKTKEEAEEAANYIIDKFDKYLEENKDKILGALISVEIEKE
B14: LC3A_28_866 (protein)
chain: MTIEEIVAAARAQAEADAARGEPIVLTVEVTSSMSLEEAIELMERVLAIAREFVERTGLPVHIVVDHDGDQEKLDALLDLADEAEAADPRITVYIALSEE
B15: LC3A_28_1239 (protein)
chain: SAVEAQIAAARAEVEAAVAAGEEALVTLTVTGSDTQEDIDKIIAAMEEIAELAATLPALSIVIDVGKDVPQEHIDKLADAAEEIEERYPNVTVIIALEER
B16: LC3A_free_46_2329 (protein)
chain: VKLEISIDLLHEDEEKMKEAVEEIKKEIEKIAKEYNAKVEIKVEISKDEDGSYFAKIDITVEAETKEKAQEIKTKIIDKIEEIAEKYDISMIISYEIIEE
B17: LC3A_28_1136 (protein)
chain: SSIVERAKAQIEEDAEKDKDSPEVLLNVTITGSITVEEAKEIMDYVEEVVEKLKDKEKIFVLVTAEEPISQEVLDTILERGDELEKKFPNVDVIVALPED
B18: LC3A_45_1997 (protein)
chain: MAEVTVDVYGKGEDVIAFLKKVKERIEKLVKEKGLNLKVDEEALKKELERAKKEEEVVAELKIYSEATQEAIDAILDAIDEAQEEVGDSVSYIISIEELP
B19: LC3A_28_798 (protein)
chain: SEVRENVEKALEEARKQIEAGEEVFIEIKIPKDATKEEIEYVAEAIEEIAREAKKAGIKSVNVVVDNENNEEAVTILDETEDRLRKEGLPINIVIALEEP
B20: LC3A_78_2091 (protein)
chain: MVTIVAYATEETKPEAERIAAKDKQSEEVKVIPLEDLEKELEKYKDAEEIDVIVVAPTLEEVEEAIEKVKELFKDKKVSSIIEIDEETGFYTGHILVTKK
B21: LC3A_3_1474 (protein)
chain: LEERLKEVLEKLKEAGASEEVLEAVKKAAEYLKSLGHEEALKTFIEEVEELVGLPSELLLWFAEEVLEAAEKYKDDEEKLIKEIESIARATKSEAEIEEL
B22: LC3A_147_487 (protein)
chain: AEVSVDIIVKSEEAAEKIIEKVKEIVEELKKKGINVELKIEVEELEEGVYYVKITIKINAETQEEAKKAANEVVQKLDEIIEELKDEVLASLISIEETER
B23: LC3A_3_1409 (protein)
chain: MEERIEETLEELRAAGHSEETLEAFRELMDLLLARGAEEEAEEAIELVREAKDISSELLLEVLNEVIEALTEEGISPEEALELLKELLRIARNEQEIIEL
B24: LC3A_3_1387 (protein)
chain: MEERIERLLELLKEAGHSEETIEAVRRALEALVEKGYEKAAEKFIELLEELKHLPDETILALAEEVLELIETSDLNEEELTKKIEELATVFRNESEIIEL
B25: LC3A_147_478 (protein)
chain: AEVDIDVLVKNEETAERLIEMVRELEEELREKGIKVEVEIEREQLDENTWYVHVRIRIEAETEEEERAAADEVVDRFEEFEEENKDEVLASMISVEFIKP
B26: LC3A_free_8_2466 (protein)
chain: SNQELVNALVEELDKLEEEVRKKAKELGLSELDILELELEIGSAIAEVISLVDKSPEEIIKAYKEEMEEIKKLAKELSPELAKVVKEAEEEALKEAKKLE
B27: LC3A_28_1270 (protein)
chain: SEIEKELEKAKAAALEAKAAGEPAVITITVPGGATQEDIEKVKKGLEEIAKILSSVPDQAIIIDVESGVKQEHIDKLADKAEEIEKKYPNVTVIIALDED
B28: LC3A_28_1247 (protein)
chain: SAIDEQLAAAKKEAEEAKAKGEEVLVTLTVTADATQEDIDKVIAAMKEIAELTKDLPSTSIIVDLEKGVKQENIDKLADAGEEIEKKYPNVTVILALEEE
B29: LC3A_127_222 (protein)
chain: MLEEIRELAEEAAKLARKAIEDPSLDKQEALKKIEKLLKEALKLAKEAGVPEEVIKDIEQALKIAEEAKKLTPEEQLEALKQLELLADGIAIELDSLILK

The assay has as its target MAP1LC3A, Q9H492. The assay is described as follows: median log2 fold change of GCK-ALFA target abundance (FLAG IP / Myc IP barcode read proportion) (log2 ratio); each designed protein is fused to an ALFA-tag nanobody in HEK293 cells to bring the named protein to FLAG-tagged glucokinase (GCK); Myc marks an untargeted standard; higher = target protein stabilised (more abundant). Conditions: target protein: 3xFLAG-MCP-GCK-ALFA reporter; HEK293 landing pad (RPLP). Put shortly:
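The readout is target abundance, the per-binder median log2 ratio of FLAG to Myc barcode read proportions. It came from HEK293 landing-pad cells carrying a recombined ALFA-nanobody-fused binder library, induced with 2 μg mL^−1 doxycycline and transfected with a plasmid for a FLAG-tagged target and a Myc-tagged standard. After 48 h, lysates were immunoprecipitated with anti-FLAG and anti-Myc, and circular RNA barcodes were reverse transcribed, amplified and sequenced. Each barcode needed a proportion of at least 10^−7 in both replicates and each binder at least 3 barcodes per replicate, a pseudocount of 10^−6 was added, and the replicates were pooled.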
For the molecule B1, the “median log2 fold change” value is -0.21. With B2, the “median log2 fold change” value is -0.00124. Then B3, with 0.238; and B4, with 0.234.

Take B5: the “median log2 fold change” value is -0.158. With B6, the “median log2 fold change” value was 0.23. For B7, the “median log2 fold change” value was 0.165. Regarding B8, the “median log2 fold change” value turned out to be 0.329. Regarding B9, the “median log2 fold change” value was -0.00967. Then B10, with -0.268; and B11, with -0.0515; and B12, with 0.221. With B13, the “median log2 fold change” value was -0.665. As to B14, the “median log2 fold change” value is -0.238.

In the case of B15, the “median log2 fold change” value came out at 0.0755. For the molecule B16, the “median log2 fold change” value was 0.177. The same measure for B17: -0.152; for B18: -0.323; for B19: -0.316. The same measure for B20: 0.24; for B21: 0.169; for B22: -0.0201. On to B23, for which the “median log2 fold change” value was -0.31.

In the case of B24, the “median log2 fold change” value amounted to 0.261. With B25, the “median log2 fold change” value was determined as 0.14. Turning to B26, the “median log2 fold change” value is 0.157. B27: the “median log2 fold change” value was -0.0362.

Regarding B28, the “median log2 fold change” value turned out to be 0.182.

On to B29, for which the “median log2 fold change” value came to 0.368.
